# This is one part of the list.
# B1: SSP1 (Sclerotinia sclerotiorum), XP_001584968 (protein)
# chain: MGSSHHHHHHSSGLVPRGSHMSLLTTELACTSAPDQVLHLFFQDGQNILEARSPDGGNVWTTQDTIIAKDGDYNGSSMTCYYVDKDANFDNQPSIHLLYMNKDKQLTEKVKRMKGDNPIWEDAKVPDEVRKGPEQYSKLTSGSFNQGTGWNPNGSQWAYFSASKDGKMGIVEIRRTPKDPWHTETILEEKWGDELPGTALACVIGNGKIRVFLQHHDYSIILYENQNNTWHDRGTFIPKDKVQATTPLACTMTKDGSVHLFYVSKSNKIIHCTDGKKEEELINFFPGSKLGATSVENKITLFFRNLNPVNEVGTLENENGSWKHGTTVIPA
# Assays:
# Assay in all cases: glycan array binding signal (z-score within array); higher = stronger binding
# Conditions in all cases: glycan notation: IUPAC condensed, linker removed
# [1] = molecular target: Neu5Ac(a2-6)Gal(b1-4)GlcNAc(b1-3)Gal(b1-4)GlcNAc(b1-3)Gal(b1-4)GlcNAc(b1-2)Man(a1-3)[Neu5Ac(a2-6)Gal(b1-4)GlcNAc(b1-3)Gal(b1-4)GlcNAc(b1-3)Gal(b1-4)GlcNAc(b1-2)Man(a1-6)]GalNAc
# In short: (§1)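 Glycan array data were curated from 3228 arrays in the Consortium for Functional Glycomics database and kept only where the protein sequence was available. Glycan names were converted to IUPAC-condensed notation, and columns mapping to the same glycan were averaged. The binding signal is a within-array Z-score, averaged across arrays of the same protein sequence at different concentrations or buffers and across linkers. Negative Z-scores can be read as non-binding.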
# [2] = molecular target: Neu5Ac(a2-6)Gal(b1-4)GlcNAc(b1-3)Gal(b1-4)GlcNAc(b1-3)GalNAc
# In short: as §1
# [3] = molecular target: Neu5Ac(a2-6)Gal(b1-4)GlcNAc(b1-3)Gal(b1-4)GlcNAc(b1-3)[Neu5Ac(a2-6)Gal(b1-4)GlcNAc(b1-3)Gal(b1-4)GlcNAc(b1-6)]GalNAc
# In short: as §1
# [4] = molecular target: Neu5Ac(a2-6)Gal(b1-4)GlcNAc(b1-3)Gal(b1-4)GlcNAc(b1-6)[Gal(b1-3)]GalNAc
# In short: as §1
# [5] = molecular target: Neu5Ac(a2-6)Gal(b1-4)GlcNAc(b1-3)Gal(b1-4)[Fuc(a1-3)]GlcNAc(b1-3)Gal(b1-4)[Fuc(a1-3)]GlcNAc
# In short: as §1
# [6] = molecular target: Neu5Ac(a2-6)Gal(b1-4)GlcNAc(b1-3)GalNAc
# In short: as §1
# [7] = molecular target: Neu5Ac(a2-6)Gal(b1-4)GlcNAc(b1-3)[Neu5Ac(a2-6)Gal(b1-4)GlcNAc(b1-6)]GalNAc
# In short: as §1
# [8] = molecular target: Neu5Ac(a2-6)Gal(b1-4)GlcNAc(b1-6)GalNAc
# In short: as §1
# [9] = molecular target: Neu5Ac(a2-6)Gal(b1-4)GlcNAc(b1-6)[Gal(b1-3)GlcNAc(b1-3)]Gal(b1-4)Glc
# In short: as §1
# [10] = molecular target: Neu5Ac(a2-6)Gal(b1-4)GlcNAc(b1-6)[Gal(b1-3)]GalNAc
# In short: as §1
# [11] = molecular target: Neu5Ac(a2-6)Gal(b1-4)GlcNAc6S
# In short: as §1
# [12] = molecular target: Neu5Ac(a2-6)GalNAc
# In short: as §1
# [13] = molecular target: Neu5Ac(a2-6)GalNAc(b1-4)GlcNAc
# In short: as §1
# [14] = molecular target: Neu5Ac(a2-6)GalNAc(b1-4)GlcNAc6S
# In short: as §1
# [15] = molecular target: Neu5Ac(a2-6)GlcNAc(b1-4)GlcNAc
# In short: as §1
# [16] = molecular target: Neu5Ac(a2-6)GlcNAc(b1-4)GlcNAc(b1-4)GlcNAc
# In short: as §1
# [17] = molecular target: Neu5Ac(a2-8)Neu5Ac
# In short: as §1
# [18] = molecular target: Neu5Ac(a2-8)Neu5Ac(a2-3)Gal(b1-3)GalNAc(b1-4)[Neu5Ac(a2-3)]Gal(b1-4)Glc
# In short: as §1
# [19] = molecular target: Neu5Ac(a2-8)Neu5Ac(a2-3)Gal(b1-3)GalNAc(b1-4)[Neu5Ac(a2-8)Neu5Ac(a2-3)]Gal(b1-4)Glc
# In short: as §1
# [20] = molecular target: Neu5Ac(a2-8)Neu5Ac(a2-3)Gal(b1-4)Glc
# In short: as §1
# [21] = molecular target: Neu5Ac(a2-8)Neu5Ac(a2-3)Gal(b1-4)GlcNAc
# In short: as §1
# [22] = molecular target: Neu5Ac(a2-8)Neu5Ac(a2-3)[Gal(b1-3)GalNAc(b1-4)]Gal(b1-4)Glc
# In short: as §1
# [23] = molecular target: Neu5Ac(a2-8)Neu5Ac(a2-3)[GalNAc(b1-4)]Gal(b1-4)Glc
# In short: as §1
# [24] = molecular target: Neu5Ac(a2-8)Neu5Ac(a2-8)Neu5Ac
# In short: as §1
# [25] = molecular target: Neu5Ac(a2-8)Neu5Ac(a2-8)Neu5Ac(a2-3)Gal(b1-4)Glc
# In short: as §1
# [26] = molecular target: Neu5Ac(a2-8)Neu5Ac(a2-8)Neu5Ac(a2-3)[Gal(b1-3)GalNAc(b1-4)]Gal(b1-4)Glc
# In short: as §1
# [27] = molecular target: Neu5Ac(a2-8)Neu5Ac(a2-8)Neu5Ac(a2-3)[GalNAc(b1-4)]Gal(b1-4)Glc
# In short: as §1
# [28] = molecular target: Neu5Ac(a2-8)Neu5Ac(a2-8)Neu5Ac(a2-8)Neu5Ac(a2-3)[GalNAc(b1-4)]Gal(b1-4)Glc
# In short: as §1
# [29] = molecular target: Neu5Ac(a2-8)Neu5Gc(a2-3)Gal(b1-4)GlcNAc
# In short: as §1
# [30] = molecular target: Neu5Ac(b2-6)Gal(b1-4)GlcNAc
# In short: as §1
# [31] = molecular target: Neu5Ac(b2-6)GalNAc
# In short: as §1
# [32] = molecular target: Neu5Ac9Ac(a2-3)Gal(b1-3)GlcNAc
# In short: as §1
# [33] = molecular target: Neu5Ac9Ac(a2-3)Gal(b1-4)GlcNAc
# In short: as §1
# [34] = molecular target: Neu5Ac9Ac(a2-6)Gal(b1-4)GlcNAc
# In short: as §1
# [35] = molecular target: Neu5Gc(a2-3)Gal(b1-3)GlcNAc
# In short: as §1
# [36] = molecular target: Neu5Gc(a2-3)Gal(b1-3)[Fuc(a1-4)]GlcNAc
# In short: as §1
# [37] = molecular target: Neu5Gc(a2-3)Gal(b1-4)Glc
# In short: as §1
# [38] = molecular target: Neu5Gc(a2-3)Gal(b1-4)GlcNAc
# In short: as §1
# [39] = molecular target: Neu5Gc(a2-3)Gal(b1-4)GlcNAc(b1-3)Gal(b1-4)GlcNAc(b1-2)Man(a1-3)[Neu5Gc(a2-3)Gal(b1-4)GlcNAc(b1-3)Gal(b1-4)GlcNAc(b1-2)Man(a1-6)]Man(b1-4)GlcNAc(b1-4)GlcNAc
# In short: as §1
# [40] = molecular target: Neu5Gc(a2-3)Gal(b1-4)[Fuc(a1-3)]GlcNAc
# In short: as §1
# [41] = molecular target: Neu5Gc(a2-6)Gal(b1-4)GlcNAc
# In short: as §1
# [42] = molecular target: Neu5Gc(a2-6)GalNAc
# In short: as §1
# [43] = molecular target: Neu5Gc(a2-8)Neu5Ac(a2-3)Gal(b1-4)GlcNAc
# In short: as §1
# [44] = molecular target: Neu5Gc(a2-8)Neu5Gc(a2-3)Gal(b1-4)GlcNAc
# In short: as §1
# [45] = molecular target: Neu5Gc(a2-8)Neu5Gc(a2-3)Gal(b1-4)GlcNAc(b1-3)Gal(b1-4)GlcNAc
# In short: as §1
# [46] = molecular target: Neu5Gc(a2-8)Neu5Gc(a2-6)Gal(b1-4)GlcNAc
# In short: as §1
# [47] = molecular target: Neu5Gc(b2-6)Gal(b1-4)GlcNAc
# In short: as §1
binder,measurement,setting,value
B1,glycan array binding signal (z-score),[1],1.4
same,glycan array binding signal (z-score),[2],0.083
same,glycan array binding signal (z-score),[3],-0.099
same,glycan array binding signal (z-score),[4],0.091
same,glycan array binding signal (z-score),[5],1.3
same,glycan array binding signal (z-score),[6],0.16
same,glycan array binding signal (z-score),[7],-0.443
same,glycan array binding signal (z-score),[8],-0.386
same,glycan array binding signal (z-score),[9],-0.009
same,glycan array binding signal (z-score),[10],-0.481
same,glycan array binding signal (z-score),[11],0.093
same,glycan array binding signal (z-score),[12],-0.577
same,glycan array binding signal (z-score),[13],-0.579
same,glycan array binding signal (z-score),[14],0.268
same,glycan array binding signal (z-score),[15],0.231
same,glycan array binding signal (z-score),[16],0.346
same,glycan array binding signal (z-score),[17],-0.405
same,glycan array binding signal (z-score),[18],-0.216
same,glycan array binding signal (z-score),[19],0.181
same,glycan array binding signal (z-score),[20],-0.712
same,glycan array binding signal (z-score),[21],-0.119
same,glycan array binding signal (z-score),[22],-0.217
same,glycan array binding signal (z-score),[23],0.221
same,glycan array binding signal (z-score),[24],-0.283
same,glycan array binding signal (z-score),[25],-0.656
same,glycan array binding signal (z-score),[26],0.164
same,glycan array binding signal (z-score),[27],-0.49
same,glycan array binding signal (z-score),[28],0.336
same,glycan array binding signal (z-score),[29],9.08
same,glycan array binding signal (z-score),[30],-0.707
same,glycan array binding signal (z-score),[31],-0.532
same,glycan array binding signal (z-score),[32],-0.209
same,glycan array binding signal (z-score),[33],-0.449
same,glycan array binding signal (z-score),[34],-0.228
same,glycan array binding signal (z-score),[35],0.388
same,glycan array binding signal (z-score),[36],0.987
same,glycan array binding signal (z-score),[37],0.196
same,glycan array binding signal (z-score),[38],-0.22
same,glycan array binding signal (z-score),[39],0.241
same,glycan array binding signal (z-score),[40],-0.542
same,glycan array binding signal (z-score),[41],-0.229
same,glycan array binding signal (z-score),[42],-0.258
same,glycan array binding signal (z-score),[43],-0.438
same,glycan array binding signal (z-score),[44],-0.265
same,glycan array binding signal (z-score),[45],-0.207
same,glycan array binding signal (z-score),[46],-0.359
same,glycan array binding signal (z-score),[47],0.101

# Reference: the supplement of paper PMC8728848
